Assay results from the supplement of paper PMC12217912.
This is one part of the list. Sequences were assembled here from the parent chain. Values near 0.05 are background.

B1: TEV protease; numbered along this chain (parent)
chain: MGESLFKGPRDYNPISSSICHLTNESDGHTTSLYGIGFGPFIITNKHLFRRNNGTLVVQSLHGVFKVKDTTTLQQHLVDGRDMIIIRMPKDFPPFPQKLKFREPQREERICLVTTNFQTKSMSSMVSDTSCTFPSGDGIFWKHWIQTKDGQCGSPLVSTRDGFIVGIHSASNFTNTNNYFTSVPKNFMELLTNQEAQQWVSGWRLNADSVLWGGHKVFMVKPEEPFQPVKEATQL

Variants of: B1
Experiment: raw area under fraction-flipped curve 0-4 h after induction (AUC4h, not background-subtracted), DNA-recorder readout of cleavage of the substrate (dimensionless); higher = more cleavage of the substrate by the protease variant
Conditions: temperature: 34 °C; time window: 0-4 h after rhamnose induction
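Also: Bxb1 expression induced with 0.2% (w/v) L-rhamnose at OD600 near 0.5, cultures sampled hourly, flipped fraction per protease–substrate barcode pair counted by paired-end Illumina sequencing.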

Variant	area with substrate ENLCFQS	area with substrate ENLDFQS	area with substrate ENLEFQS	area with substrate ENLFFQS	area with substrate ENLHFQS	area with substrate ENLIFQS	area with substrate ENLKFQS	area with substrate ENLLFQS	area with substrate ENLMFQS	area with substrate ENLNFQS	area with substrate ENLPFQS	area with substrate ENLQFQS	area with substrate ENLRFQS	area with substrate ENLSFQS	area with substrate ENLTFQS	area with substrate ENLVFQS	area with substrate ENLWFQS	area with substrate ENLGFQS
A196I	0.0768	0.0634	0.0622	0.0929	0.0772	0.0903	0.0456	0.0829	0.0978	0.0648	0.0494	0.0699	0.0988	0.0619	0.0707	0.0846	0.0559	–
I19C	–	0.0574	0.0437	0.0818	–	–	0.0686	0.089	0.0615	0.0512	–	0.0688	0.0745	0.0666	–	–	0.0567	0.0552
W203E	0.0643	0.0689	0.0751	–	–	0.0636	0.0639	–	–	–	0.0687	0.0684	–	0.0597	–	0.0683	–	–
F187C	0.0564	0.0603	–	0.0904	0.063	–	–	–	–	0.0685	–	–	–	–	–	–	0.0662	0.068
T181Y	0.0621	0.0677	0.0668	0.0492	–	–	0.0878	0.0636	–	–	0.0408	0.0683	0.061	0.0877	–	–	–	0.0633
E223C	0.0696	0.0543	0.0643	0.0839	0.0748	0.0924	0.0773	0.0756	–	0.0665	0.0725	0.0541	–	0.101	–	–	–	–
L205E	0.0675	–	0.0599	0.0632	0.0697	–	–	0.0504	–	0.074	0.0664	–	0.0637	–	–	–	–	–
I139F	0.0985	0.0647	–	0.0935	0.0715	–	0.0729	0.0755	–	0.0959	0.067	0.0849	0.0654	0.0643	–	–	–	0.0705
W141Q	0.0559	0.0392	0.0651	0.0561	0.0529	–	0.0517	–	–	0.0565	0.0552	–	–	–	0.102	–	0.045	0.0506
F180P	0.0593	0.0506	–	–	–	0.0651	–	–	0.0755	0.0623	0.0414	–	0.0539	0.0595	–	–	0.0625	0.0363
F173I	0.0716	0.0626	0.0552	0.0824	0.065	–	0.0527	0.0613	–	0.0661	0.0667	–	0.069	0.0768	–	0.0616	–	0.0549
F173S	0.0659	0.0679	–	0.0619	0.0576	–	0.0721	0.0647	–	–	0.0702	–	0.0427	0.0802	–	–	–	–
Q151W	0.0675	0.0686	0.0607	0.0993	0.0695	–	0.0653	0.0657	0.0911	0.0648	0.0675	–	–	0.0599	–	0.0784	0.0621	–
Q151L	0.0657	0.0682	–	0.0673	0.0625	–	0.0567	–	–	0.136	0.0614	0.092	–	0.0671	–	–	0.0535	–
G28E	–	0.0501	0.066	0.0703	0.0582	0.0715	0.0655	0.0438	–	0.0738	0.0565	0.0721	0.0689	0.0596	–	0.064	0.078	–
P9V	–	0.0576	–	0.0914	0.0706	–	0.0823	0.0707	–	–	0.0517	–	0.094	0.0617	–	0.0802	0.0548	0.072
H143L	0.0546	0.0687	–	0.0634	0.0649	–	0.0627	0.0583	0.0622	0.0579	–	–	0.0706	0.0691	–	–	–	0.059
D161T	0.0884	0.0555	0.0606	0.0755	0.0568	–	0.0834	–	0.0708	0.0663	0.0735	0.0628	0.076	–	–	0.0653	0.0632	0.0615
G202M	0.0609	0.0396	–	0.072	0.0529	–	0.0675	0.0679	–	0.0574	0.0448	–	0.0653	–	–	–	0.0387	–
N186W	0.0603	0.046	–	0.0686	0.0587	0.059	0.0659	–	0.0648	0.0702	0.0495	–	0.0769	0.0779	–	–	0.0622	0.0684
N186E	0.0642	0.0699	0.0605	0.0804	–	0.0816	–	–	–	0.0787	–	–	0.0678	–	–	0.0602	0.0818	–
F218L	0.0668	0.0584	0.0612	0.0749	0.066	0.0677	0.0621	0.0658	0.0669	0.0457	–	0.0667	0.0683	0.0626	–	0.0698	0.0318	–
N175T	0.0639	0.0633	–	0.0768	–	0.0985	–	–	–	–	–	0.0627	0.0836	–	–	0.0533	0.0441	–
P40E	–	0.0452	0.0668	0.124	0.0697	0.095	–	–	–	0.0726	0.0511	–	–	0.0647	–	0.0952	0.0682	–
K230W	0.0838	0.0339	0.073	0.0802	0.0789	0.0999	0.0946	0.0342	0.0712	0.0548	0.0576	–	0.0704	0.0582	–	0.0787	0.0676	–
Y179Q	0.0655	0.0575	0.056	0.0621	–	0.0822	0.0634	–	–	0.0566	0.0644	0.0643	0.0627	0.0615	–	0.0443	–	–
G136M	0.0718	0.0512	0.0791	0.0831	–	0.0825	0.0685	0.0629	0.0627	0.0629	0.0444	0.0756	0.0679	0.0822	–	0.0754	0.08	–
T159L	0.0696	0.0688	0.0393	–	0.0557	0.0836	–	–	0.0537	0.0674	0.0553	–	–	0.0592	–	–	0.0598	0.0754
Y34G	–	0.0489	–	–	0.0541	–	0.0732	–	–	–	0.0618	–	0.0563	0.0711	–	–	–	–
C20S	–	0.0492	0.0628	0.0657	0.0575	0.0822	0.0707	0.0507	0.0438	0.0579	0.0646	–	0.0552	0.0633	–	0.0805	0.0518	–
